# Measured values: PubChem BioAssay AID651820 (National Center for Advancing Translational Sciences (NCATS), 2012)
# The whole screen tested about 340,000 compounds, of which about 12,000 (3.5%) were called active. This list was built around the results that the source calls inconclusive (neither active nor inactive); the mix of calls is not that of the screen. The call rests on the fitted dose curve; in most records, active means well fitted inhibition curve with a large enough effect; inconclusive means small, poorly fitted or top-dose-only effect, or another doubt; inactive means no such curve, though single readings can be large or run the other way. No potency is given beside an inconclusive call; the fits are too rough.
# Test: qHTS Assay for Inhibitors of Hepatitis C Virus (HCV)
# Details: Huh7.5.1 HCVcc-Cre (HCVcc is cell-culture hepatitis C virus) infection, luciferase reporter, 44 h; series mostly up to 41.8 µM
# Method in brief: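 Seed cells (1,000/well) for 4 h; treat with compound and infect with HCVcc-Cre, moi about 0.5. Incubate 44 h, then detect luciferase activity.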
# Potency means the concentration at half of the fitted maximal effect; tags describe the fitted curve by direction and shape.
row,SMILES,Potency
1,CCC(=O)Nc1nnc(CCc2ccccc2)s1,inactive
2,COc1ccc(OC)c(NC(=O)c2nc3ccccc3s2)c1,"inconclusive [inhibitor, full curve]"
3,Cc1cc(C)c2[nH]c3nc(SCC(=O)O)nnc3c2c1,inactive
4,CC(=O)Nc1ccc(NC(=O)CCCSc2nc3ccccc3s2)cc1,"inconclusive [inhibitor, single point]"
5,O=C(COC(=O)CCc1nc2ccccc2c(=O)[nH]1)NC1CCS(=O)(=O)C1 (stereo not given),inactive
6,CC(=O)Nc1sc2c(c1CN1CCCC1)CCCC2,"inconclusive [inhibitor, single point]"
7,COc1ccc(NC(=S)N(Cc2ccccn2)Cc2ccccc2Cl)cc1,inactive
8,COc1ccc(-c2ccc(C#N)c(SCC(=O)Nc3sc4c(c3C#N)CCC4)n2)cc1OC,"inconclusive [inhibitor, full curve]"
9,CCOc1ccc(NC(=S)NCc2cccnc2)cc1,inactive
10,COc1ccc(C(=O)N/N=C/c2ccc3cccc(OCc4ccccc4)c3n2)cc1,active: 8.91 µM
11,Cc1cc(N/N=C/c2ccco2)c2ccccc2n1,"inconclusive [inhibitor, full curve, poor fit]"
12,Cc1cc(O)c2c(c1O)C(=O)[C@]13C(=C2O)C(=O)[C@@H]2[C@@H](O)[C@H]1[C@@H]1[C@H](O)[C@H]3C(=O)C3=C(O)c4c(O)cc(C)c(O)c4C(=O)[C@]312,active: 5.01 µM
13,CCOC(=O)CN1C(=O)/C(=C/c2c(F)cccc2Cl)Oc2ccccc21,"inconclusive [inhibitor, single point]"
14,COc1ccc(CCNC(=O)c2ccc(S(=O)(=O)N(C)c3ccccc3)cc2)cc1OC,"inconclusive [inhibitor, partial curve]"
15,CCCc1cc(=O)[nH]c(SCCc2ccccc2)n1,inactive
16,CN1CCC(N(C)S(=O)(=O)c2ccc(NC(=O)Cc3ccc(F)cc3)cc2)CC1,"inconclusive [inhibitor, single point]"
17,Cc1cc(/C=C2\SC(=S)NC2=O)c(C)[nH]1,"inconclusive [inhibitor, partial curve, poor fit]"
18,COc1cccc(-c2cc(C(=O)Nc3ccc(N(C)C(C)=O)cc3)c3cc(Br)ccc3n2)c1,active: 11.2 µM
19,O=C(Nc1cccc(Cl)c1)c1cnc[nH]1,inactive
20,COc1ccc(C(CNC(=O)Cc2ccc(Cl)c(Cl)c2)N(C)C)cc1 (stereo not given),"inconclusive [inhibitor, single point]"
21,COc1ccc(CCn2c(-c3ccccc3)nc3c(c(=O)c4ccccc4n3C)c2=O)cc1,inactive
22,CC1(C)Cc2c(C#N)c(SCc3nc4ccccc4[nH]3)nc(N3CCOCC3)c2CO1,"inconclusive [inhibitor, partial curve]"
23,Cc1nc2ccc([N+](=O)[O-])cc2c(=O)n1Cc1ccc(Cl)cc1,"inconclusive [inhibitor, partial curve]"
24,Cn1c(CN2CCN(C(=O)c3ccccc3)CC2)nc2cc([N+](=O)[O-])ccc21,"inconclusive [inhibitor, single point]"

row,SMILES,Potency
1,COc1ccccc1-c1nnc(NC(=O)c2ccc(S(=O)(=O)N(C)CC3CCCO3)cc2)o1 (stereo not given),"inconclusive [inhibitor, single point]"
2,COc1ccc(C2CC(c3cccs3)n3nc(N)nc3N2)cc1 (stereo not given),"inconclusive [inhibitor, single point]"
3,Cc1cccc(C(=O)NC2CCCCCCC2)c1,inactive
4,Cc1ccc(OCCn2c(=S)[nH]c3ccccc32)c(C(C)C)c1,"inconclusive [inhibitor, single point]"
5,CNC(=O)c1ccsc1NC(=O)C1CCN(S(=O)(=O)c2ccc(Cl)s2)CC1,"inconclusive [inhibitor, single point]"
6,O=C(c1cncc(Br)c1)N1CCN(S(=O)(=O)c2ccc(Cl)cc2)CC1,inactive
7,Cc1ccc(-c2c(C)sc3nc[nH]c(=O)c23)cc1C,"inconclusive [inhibitor, single point]"
8,COc1ccc(C(O)(CCN2CCOCC2)c2ccccc2)cc1 (stereo not given),inactive
9,O=C(CSc1nc2cc(Cl)ccc2s1)Nc1cccc(S(=O)(=O)N2CCOCC2)c1,"inconclusive [inhibitor, single point]"
10,CCCCN(N=Nc1nonc1OC)c1nonc1OC,"inconclusive [inhibitor, full curve, poor fit]"
11,COc1ccccc1OC1=NS(=O)(=O)c2ccccc21,inactive
12,O=C(/C=C/c1cn(CC(O)CN2CCCCC2)c2ccccc12)c1cccs1 (stereo not given),"inconclusive [inhibitor, partial curve]"
13,CC1Cc2cc(S(=O)(=O)NCc3ccccc3)ccc2N1C(=O)C1CC1 (stereo not given),"inconclusive [inhibitor, partial curve]"
14,CCc1ccccc1S(=O)(=O)Cc1ccc(C(=O)N2CCN(c3ccccn3)CC2)o1,"inconclusive [inhibitor, partial curve]"
15,Cc1noc(C)c1NC(=O)N(C)C[C@H]1Oc2c(NC(=O)Nc3ccc(C(F)(F)F)cc3)cccc2C(=O)N([C@H](C)CO)C[C@@H]1C,"inconclusive [inhibitor, partial curve]"
16,CCN(CC#CCC(O)(c1ccccc1)C1CCCC1)C(C)C (stereo not given),"inconclusive [inhibitor, partial curve]"
17,COc1cccc(C2=CC(c3cccc(OC)c3OC)n3nnnc3N2)c1 (stereo not given),"inconclusive [inhibitor, partial curve]"
18,CN(C)c1ccc(N2C(=O)CSC2=S)cc1,inactive
19,CC12CCC(=O)N1C(C(=O)NCCN1C(=O)S/C(=C\c3ccccc3F)C1=O)CS2 (stereo not given),"inconclusive [inhibitor, full curve, poor fit]"
20,Cn1c(=O)c2c(nc(N3CCCCC3)n2CCSc2nc3ccccc3s2)n(C)c1=O,"inconclusive [inhibitor, single point]"
21,CCn1c(SCC(=O)N2CCN(c3ccccc3F)CC2)nnc1-c1ccoc1C,"inconclusive [inhibitor, single point]"
22,O=C(N/N=C/c1ccco1)c1ccccc1OCc1ccc(Br)cc1,"inconclusive [inhibitor, single point]"
23,Cc1cc(C)nc(N/N=C/C(Cl)=C/c2ccccc2)n1,"inconclusive [inhibitor, single point]"
24,Cc1noc(C)c1CSc1nc2ccccc2c(=O)n1-c1ccccc1,active: 3.98 µM

row,SMILES,Potency
1,N#C/C(C(=O)Oc1ccccc1)=C1/Nc2ccccc2-c2ccccc21,"inconclusive [inhibitor, partial curve, poor fit]"
2,O=C(OCCOCn1cc(Br)c(=O)[nH]c1=O)c1ccccc1,inactive
3,CCOC(=O)c1c(-c2cccs2)csc1NC(=O)CN(CC)CC,active: 11.2 µM
4,Cc1sc2nc(CSC(C)C(=O)N(C)CC(=O)Nc3ccccc3C(F)(F)F)[nH]c(=O)c2c1C (stereo not given),"inconclusive [inhibitor, single point]"
5,COc1ccc(NS(=O)(=O)c2ccc(NC(C)=O)cc2)cc1OC,"inconclusive [inhibitor, single point]"
6,COC(=O)c1cc2sccc2n1Cc1nc(-c2ccc(Cl)cc2)oc1C,inactive
7,CC(=O)Oc1c(/C=C(\C#N)C(N)=O)[nH]c2ccccc12,"inconclusive [inhibitor, single point]"
8,COCCN1CCN(c2c(C)c(C)nc3cc(-c4cccc(OC)c4)nn23)CC1,"inconclusive [inhibitor, full curve, poor fit]"
9,Cc1c(C(=S)Nc2ccccc2)cnn1-c1ccc([N+](=O)[O-])cc1,"inconclusive [inhibitor, partial curve, poor fit]"
10,COc1ccccc1NS(=O)(=O)c1cccc(C(=O)N/N=C/c2c(CO)cnc(C)c2O)c1,"inconclusive [inhibitor, partial curve]"
11,CC(=O)Nc1ccc(S(=O)(=O)Nc2nc3cc4c(cc3nc2Cl)OCCO4)cc1,inactive
12,COc1ccc(-c2ccc(SCC(=O)NC3CCCCC3)nn2)cc1,inactive
13,CC(=O)N1CCCN(Cc2cn(-c3cccc(C)c3)nc2-c2cccc(F)c2)CC1,"inconclusive [inhibitor, single point]"
14,CCNc1nc(SCC(=O)OC)nc(N2CCOCC2)n1,"inconclusive [inhibitor, single point]"
15,Cc1ccc(N(CCCCN2C(=O)c3ccccc3C2=O)C(=O)c2cccs2)cc1,inactive
16,CCOc1c2ccc(C(=O)NCc3ccc(C)cc3)cc2nn1CC,inactive
17,O=C(NC(C(=O)N/N=C/c1cccc2ccccc12)c1n[nH]c(=O)c2ccccc12)c1ccccc1 (stereo not given),active: 22.4 µM
18,C=CCOc1ccc(C(=O)Nc2ccccc2C(=O)NCc2cccnc2)cc1,inactive
19,Cn1c(=O)c2c(nc(NCc3ccc4c(c3)OCO4)n2Cc2ccccc2)n(C)c1=O,"inconclusive [inhibitor, single point]"
20,Cc1ccc(NC(=O)CCc2ccc(S(=O)(=O)N3CCOCC3)cc2)c(Cl)c1,"inconclusive [inhibitor, single point]"
21,O=C(NNC(=O)c1ccc(O)c(Cl)c1)c1cccc(S(=O)(=O)N2CCOCC2)c1,inactive
22,COc1cc(/C=N/NC(=O)CN(Cc2ccccc2)S(=O)(=O)c2ccc3c(c2)OCCO3)ccc1O,"inconclusive [inhibitor, single point]"
